Test results reported in the supplement of paper PMC8728848.
The other results are listed elsewhere or left out.

Legend:
Test in all cases: glycan array binding signal (z-score within array); higher = stronger binding
Details in all cases: glycan notation: IUPAC condensed, linker removed
[1] = target: Gal(b1-4)GlcNAc(b1-6)[Gal(b1-3)]GalNAc
Procedure, shortened: (§1)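 Columns mapping to the same glycan were averaged after glycan names were converted to IUPAC-condensed notation. The data come from 3228 arrays in the Consortium for Functional Glycomics database, limited to those with an available protein sequence. Binding is reported as a within-array Z-score averaged across arrays of one protein sequence and across linkers.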

Gal(b1-6)Gal = target: Gal(b1-6)Gal
Procedure, shortened: as §1

Gal3S(b1-3)GalNAc = target: Gal3S(b1-3)GalNAc
Procedure, shortened: as §1

Gal3S(b1-3)GlcNAc = target: Gal3S(b1-3)GlcNAc
Procedure, shortened: as §1

[2] = target: Gal3S(b1-3)[Fuc(a1-4)]GlcNAc
Procedure, shortened: as §1

Gal3S(b1-4)Glc = target: Gal3S(b1-4)Glc
Procedure, shortened: as §1

Gal3S(b1-4)Glc6S = target: Gal3S(b1-4)Glc6S
Procedure, shortened: as §1

Gal3S(b1-4)GlcNAc = target: Gal3S(b1-4)GlcNAc
Procedure, shortened: as §1

Gal3S(b1-4)GlcNAc6S = target: Gal3S(b1-4)GlcNAc6S
Procedure, shortened: as §1

[3] = target: Gal3S(b1-4)[Fuc(a1-3)]Glc
Procedure, shortened: as §1

[4] = target: Gal3S(b1-4)[Fuc(a1-3)]Glc6S
Procedure, shortened: as §1

Gal3S4S(b1-4)GlcNAc = target: Gal3S4S(b1-4)GlcNAc
Procedure, shortened: as §1

Gal3S6S(b1-4)GlcNAc = target: Gal3S6S(b1-4)GlcNAc
Procedure, shortened: as §1

Gal3S6S(b1-4)GlcNAc6S = target: Gal3S6S(b1-4)GlcNAc6S
Procedure, shortened: as §1

Gal4S(b1-4)GlcNAc = target: Gal4S(b1-4)GlcNAc
Procedure, shortened: as §1

Gal4S6S(b1-4)GlcNAc = target: Gal4S6S(b1-4)GlcNAc
Procedure, shortened: as §1

Gal6S(b1-3)GlcNAc = target: Gal6S(b1-3)GlcNAc
Procedure, shortened: as §1

Gal6S(b1-3)GlcNAc6S = target: Gal6S(b1-3)GlcNAc6S
Procedure, shortened: as §1

Gal6S(b1-4)Glc = target: Gal6S(b1-4)Glc
Procedure, shortened: as §1

Gal6S(b1-4)Glc6S = target: Gal6S(b1-4)Glc6S
Procedure, shortened: as §1

Gal6S(b1-4)GlcNAc = target: Gal6S(b1-4)GlcNAc
Procedure, shortened: as §1

Gal6S(b1-4)GlcNAc6S = target: Gal6S(b1-4)GlcNAc6S
Procedure, shortened: as §1

GalNAc(a1-3)Gal = target: GalNAc(a1-3)Gal
Procedure, shortened: as §1

GalNAc(a1-3)GalNAc = target: GalNAc(a1-3)GalNAc
Procedure, shortened: as §1

[5] = target: GalNAc(a1-3)GalNAc(a1-3)Gal(a1-4)Gal(b1-4)GlcNAc
Procedure, shortened: as §1

[6] = target: GalNAc(a1-3)GalNAc(b1-3)Gal(a1-4)Gal(b1-4)Glc
Procedure, shortened: as §1

GalNAc(b1-3)Gal = target: GalNAc(b1-3)Gal
Procedure, shortened: as §1

[7] = target: GalNAc(b1-3)Gal(a1-4)Gal(b1-4)GlcNAc
Procedure, shortened: as §1

[8] = target: GalNAc(b1-3)Gal(a1-4)Gal(b1-4)GlcNAc(b1-3)Gal(b1-4)Glc
Procedure, shortened: as §1

[9] = target: GalNAc(b1-3)Gal(a1-6)Gal(b1-4)Glc
Procedure, shortened: as §1

GalNAc(b1-3)GalNAc = target: GalNAc(b1-3)GalNAc
Procedure, shortened: as §1

GalNAc(b1-4)GlcNAc = target: GalNAc(b1-4)GlcNAc
Procedure, shortened: as §1

[10] = target: GalNAc(b1-4)GlcNAc(b1-2)Man(a1-3)[GalNAc(b1-4)GlcNAc(b1-2)Man(a1-6)]Man(b1-4)GlcNAc(b1-4)GlcNAc
Procedure, shortened: as §1

GalNAc(b1-6)GalNAc = target: GalNAc(b1-6)GalNAc
Procedure, shortened: as §1

Glc(a1-4)Glc = target: Glc(a1-4)Glc
Procedure, shortened: as §1

Glc(a1-6)Glc(a1-6)Glc = target: Glc(a1-6)Glc(a1-6)Glc
Procedure, shortened: as §1

Glc(b1-4)Glc = target: Glc(b1-4)Glc
Procedure, shortened: as §1

Glc(b1-6)Glc = target: Glc(b1-6)Glc
Procedure, shortened: as §1

GlcA(b1-3)Gal = target: GlcA(b1-3)Gal
Procedure, shortened: as §1

GlcA(b1-3)GlcNAc = target: GlcA(b1-3)GlcNAc
Procedure, shortened: as §1

GlcA(b1-6)Gal = target: GlcA(b1-6)Gal
Procedure, shortened: as §1

[11] = target: GlcNAc(a1-3)Gal(b1-4)GlcNAc
Procedure, shortened: as §1

[12] = target: GlcNAc(a1-4)Gal(b1-3)GlcNAc
Procedure, shortened: as §1

[13] = target: GlcNAc(a1-4)Gal(b1-4)GalNAc
Procedure, shortened: as §1

[14] = target: GlcNAc(a1-4)Gal(b1-4)GlcNAc
Procedure, shortened: as §1

B1: Gal 7 (Canis lupus) (protein)
chain: MAGSSNVPHKTSLPEGIRVGTVMRIRGVVPNKAGRFYVNLLCGEAPGSEAALHFNPRLDESTVVFNTLEQGAWGREERGTGIPFQRGQPFDVLLIATDEGFKAVVGDSEYHHFRYRIPPARVRLLEVGGDLQLESVSVF
- glycan array binding signal (z-score) [1]: -0.186
- glycan array binding signal (z-score) (Gal(b1-6)Gal): -0.173
- glycan array binding signal (z-score) (Gal3S(b1-3)GalNAc): -0.195
- glycan array binding signal (z-score) (Gal3S(b1-3)GlcNAc): -0.07
- glycan array binding signal (z-score) [2]: -0.213
- glycan array binding signal (z-score) (Gal3S(b1-4)Glc): -0.187
- glycan array binding signal (z-score) (Gal3S(b1-4)Glc6S): -0.148
- glycan array binding signal (z-score) (Gal3S(b1-4)GlcNAc): -0.181
- glycan array binding signal (z-score) (Gal3S(b1-4)GlcNAc6S): -0.161
- glycan array binding signal (z-score) [3]: -0.192
- glycan array binding signal (z-score) [4]: -0.204
- glycan array binding signal (z-score) (Gal3S4S(b1-4)GlcNAc): -0.065
- glycan array binding signal (z-score) (Gal3S6S(b1-4)GlcNAc): -0.206
- glycan array binding signal (z-score) (Gal3S6S(b1-4)GlcNAc6S): -0.212
- glycan array binding signal (z-score) (Gal4S(b1-4)GlcNAc): -0.2
- glycan array binding signal (z-score) (Gal4S6S(b1-4)GlcNAc): -0.205
- glycan array binding signal (z-score) (Gal6S(b1-3)GlcNAc): -0.172
- glycan array binding signal (z-score) (Gal6S(b1-3)GlcNAc6S): -0.179
- glycan array binding signal (z-score) (Gal6S(b1-4)Glc): -0.204
- glycan array binding signal (z-score) (Gal6S(b1-4)Glc6S): -0.213
- glycan array binding signal (z-score) (Gal6S(b1-4)GlcNAc): -0.195
- glycan array binding signal (z-score) (Gal6S(b1-4)GlcNAc6S): -0.191
- glycan array binding signal (z-score) (GalNAc(a1-3)Gal): -0.204
- glycan array binding signal (z-score) (GalNAc(a1-3)GalNAc): -0.211
- glycan array binding signal (z-score) [5]: -0.052
- glycan array binding signal (z-score) [6]: -0.044
- glycan array binding signal (z-score) (GalNAc(b1-3)Gal): -0.205
- glycan array binding signal (z-score) [7]: -0.189
- glycan array binding signal (z-score) [8]: 1.22
- glycan array binding signal (z-score) [9]: -0.17
- glycan array binding signal (z-score) (GalNAc(b1-3)GalNAc): -0.214
- glycan array binding signal (z-score) (GalNAc(b1-4)GlcNAc): -0.21
- glycan array binding signal (z-score) [10]: -0.205
- glycan array binding signal (z-score) (GalNAc(b1-6)GalNAc): -0.158
- glycan array binding signal (z-score) (Glc(a1-4)Glc): -0.211
- glycan array binding signal (z-score) (Glc(a1-6)Glc(a1-6)Glc): -0.217
- glycan array binding signal (z-score) (Glc(b1-4)Glc): -0.2
- glycan array binding signal (z-score) (Glc(b1-6)Glc): -0.208
- glycan array binding signal (z-score) (GlcA(b1-3)Gal): -0.219
- glycan array binding signal (z-score) (GlcA(b1-3)GlcNAc): -0.174
- glycan array binding signal (z-score) (GlcA(b1-6)Gal): -0.208
- glycan array binding signal (z-score) [11]: -0.199
- glycan array binding signal (z-score) [12]: -0.215
- glycan array binding signal (z-score) [13]: -0.211
- glycan array binding signal (z-score) [14]: -0.209
